Data: the supplement of paper PMC10126150
Values marked as one replicate rest on one cluster of the flow cell; about a third of the high ones do not repeat.

System: ATP
Assay: switch fluorescence ratio, 500 uM ATP over buffer (Cy3 cluster intensity, sum of 5 cycles each) (fold (ratio)); higher = stronger signal-on switching upon ATP binding; sequences stand for … in TCGTCGGCAGCGTCAGATGTGTATAAGAGACAGTTTTTTTTTTTTTTTTTTTTTTTTT…TC
Details: aptamer strand: ATP DNA aptamer (quencher-CACCTGGGGGAGTATTGCGGAGGAAGG + anchor), 100 nM annealed; ATP concentration: 500 uM; one replicate
Procedure, shortened: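 Five buffer/ATP imaging cycles were run on Cy3-labelled switching-strand clusters on a modified Illumina MiSeq flow-cell, with NaOH stripping and re-annealing between cycles. In each cycle, clusters annealed to 100 nM quencher-labelled ATP aptamer were imaged in selection buffer, then after 15 min with 500 uM ATP at 22 °C. Per cluster, the fluorescence ratio is summed target-cycle over summed buffer-cycle Cy3 intensity, averaged per switch-domain sequence. Only clusters within 100-1000 RFU were kept.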
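Further: ATP exposure 15 min at 22 °C before imaging.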

Sequence | switch fluorescence ratio
AGAATGCGAG | 1.02
CAGTACTCAA | 1.09
ATCCGCTAAG | 2.82
TCCCAAATCG | 1.02
TTGTAAATTA | 1.01
GATTAAGCGG | 0.959
GATGGTGCAC | 0.998
GATTTGCTTG | 1.02
GCTCTGGGTG | 1.53
TCATCCGGG | 1.33
TCTTTGCCCA | 1.27
AGTAAAGGAT | 0.992
GGCAGAAGCT | 1.07
TCGGAGTTCT | 1.02
CGATAACGTT | 0.987
ACAGGGGGC | 1.14
CCCCGTTGAT | 1.61
ACTAAGTATG | 0.987
CGCGAGCGGG | 1.05
TGCAGCGGAG | 1.03
AAAGCAAGGA | 1.35
AAAGTTAGTA | 0.998
CGACTCGGCC | 1.15
CTTCTAGCGA | 1.65
CGTTCTCACT | 0.974
TGATGAGGAC | 1

Sequence | switch fluorescence ratio
TTAACGAAAA | 0.991
TCACATGGGT | 0.976
AAGGGTTCGT | 0.98
TTCCCGAGAC | 2.23
AGAAAAGAGG | 0.978
GCGGCAGCAG | 0.989
TATTAGGGCG | 0.991
ATTTTATTAA | 0.931
AAGTGATTGC | 1.01
TCTACCGGAC | 1.79
TACAGACTTA | 1.02
TCGAGGCCGG | 1.05
TTTACCATGG | 1
TTGTCATAAA | 1.01
GTATTAAGGC | 1.03
GGACCCCTTA | 1.02
CTGTCTCGGA | 0.971
GCTCACGACA | 1.18
AAAAGGTGTT | 1
TGCTTTACTC | 1.64
CCTTAGTCGC | 1.12
TGTTGGATAT | 1.01
AAGACCATTC | 1.05
TTTCGGGAAC | 1.05
TCGACAGGTC | 1.03
AATTGTTCAC | 0.998

Sequence | switch fluorescence ratio
TATCGTACCC | 1.13
GTGTACAGGG | 1.04
AGAACTGATA | 1.04
CGGCTACA | 1.03
ATTATAACGT | 1.02
ATTCGCTCGA | 1.03
TGCTAGCAA | 1.02
AGTTACGAGA | 1.02
TAGGTCATTT | 0.986
AGCTTGATGG | 0.991
CATTGCATGT | 0.99
CGCTAGGCGC | 0.988
ACTATAGTTT | 1.06
TAGACCTTGA | 1.04
CCGTTAACGT | 1.02
AGGATAACCA | 1.02
TTCACTACA | 1.07
AGAATGGGG | 1.07
ACAAGTCAAC | 1.07
TGACATCGTT | 1.03
TGGCGGGGCC | 1.02
CCGATGTTTC | 3.26
GTCCGGAGGT | 1
GGTACCGGCG | 1.02
TTATGTCTGA | 1.02
CGGAACCAGA | 1.04

Sequence | switch fluorescence ratio
ATAGCCGCTG | 1.03
TTATGTCCAT | 1.02
GTGTGAATGG | 1.02
TCTTACAGAC | 1.58
GAATCGGGG | 1.04
CAGTATCCGT | 1.02
GTTTAACGGC | 1.05
CGATAATTAA | 0.988
GTTGGCATAC | 2
ACAGTAAAGT | 1.04
GTGGGGACTA | 1.01
ATGCCCA | 0.99
TTACGTGAAA | 1.01
AAAGCGGTGT | 0.959
CGCCTTATTA | 0.93
TAGTGCACGA | 1.03
CAGCTTACGA | 1.56
AAGCTGAATA | 1.02
AACGTAACTT | 1.12
CTAGTCGCGA | 1.04
GATACTATAG | 1
ATAGGTATTG | 0.988
TTCGGGAAAT | 1.04
TGGGTTCC | 1.04
GTCTGTTAAA | 1.02
CTGGGCAAGC | 1.12

Sequence | switch fluorescence ratio
GGAATTCGAA | 1.01
GAACTGGATT | 1.06
TCTTTACCTC | 0.987
GACCCTTCGC | 1.59
GCTTGGCAAT | 1.13
GAGACTATGG | 1.1
TTTGGTCACC | 1.01
TTAATCAGTT | 1
ACAGTCATTT | 1.03
ATAAATCCCC | 1
TGAGACCTGT | 1.03
ACCGCATATG | 2.6
ATATGGTCA | 1.01
AAGAAATTTA | 0.99
TAAATTGAAA | 1.02
CTGCGGTTTT | 0.985
CCAAGTTTGG | 1.01
GGCACTGCCG | 0.908
AGGTGCCCCT | 1.04
CCCGGAGCCT | 1.94
TATATAAGGC | 0.934
CGGGCCTAGG | 0.954
CGTATACCT | 0.984
AGTCCATGTA | 0.992
TTGTGGGTAA | 1.04
AGTATTGAGA | 0.979

Sequence | switch fluorescence ratio
ATCAGCATCT | 1.08
TGCAACGCCG | 1.1
AACACCGCAG | 1.62
GGGGTTGGAT | 1
TATTTTAGCC | 1.18
ACTTAGTTCG | 1.05
GTTTTATGTG | 0.989
GAACGTAGGC | 1.03
GCACGAAGGA | 1.05
GATTGTGAAA | 0.98
GCAGGGATCC | 1.02
TGGTGGTGG | 1
GAGGTCTTGG | 0.971
CACGCGAGTT | 1.04
CCGGTCTTCG | 1.01
CTAAGCCCTG | 1.04
AGCATGTTCT | 0.994
TGGGATGA | 0.983
CACCGCGATC | 2.73
TTCGCAACT | 1.29
TTTACTGA | 1.03
GGCACGTTTT | 1.01
CATCTTTGTA | 0.941
CGGTATGCGC | 0.984
GCTCAATGAA | 0.996
CCCGCGGGAG | 1.02

Sequence | switch fluorescence ratio
TATGTAATGC | 1.25
AGCACGCAAT | 5.73
TATTATAAGC | 1.01
ACACAATACG | 2.56
AAACGATATA | 1.01
CTAGCGTCGG | 0.996
ACTTGGATGT | 1.03
CGGTCCCAGG | 6.84
TGAGGCGGTG | 0.975
AATCGTTCAC | 0.975
ATAGTTCGT | 0.96
TATGACTCGC | 1.08
AACTTACAA | 1.16
GAGTTTACAT | 1.01
AACTATGGGG | 0.932
TTCAATGCCA | 1.05
AGAGCGAAAA | 0.984
TTATAATTG | 1
ATGGTGATA | 0.992
TGGTATGGT | 0.95
CTAGGACTAG | 1.07
GCAAACGCTC | 1.27
TGTTGAGGTG | 1.04
GTCTGTGCTG | 1.01
TCTTGTGTGA | 1.02
GTTACGTGGA | 1.09

Sequence | switch fluorescence ratio
TGACCTCGAG | 0.955
GGAACCCGTC | 1.13
GTTTTGCCCC | 0.934
GGGCATATAT | 1.07
AGCGTGTGGA | 0.897
TGCAACCGTT | 0.972
AGCTTGGCGG | 1
TGCATAAGAG | 1.05
TTTTAGCCGC | 1.07
GCTAAAAGAA | 1.02
TGCTAGTACA | 1.02
GTGTATGGGT | 0.993
AGTTCATTGA | 1.02
GACCGCGAAT | 2.08
TGCTTGGACG | 1.03
GCACAGAGGC | 1.07
GACGCCACG | 1.06
GAGGTATAT | 0.999
CTCCTAGTAG | 1.19
